Reference: US6858574B2, “Process for making perfume containing surfactant compositions having perfume burst when diluted” (Unilever Home & Personal Care USA, division of Conopco, Inc., priority 2002, dated 2005)
At least one compound was matched to its structure with a doubt left. Marks after values point to notes of the source that are not given here. Some entries share one result that the patent states for a list of compounds.

Test: not given
Settings: cited from earlier work

Row | SMILES | CMC (wt./wt.)
1 | CCCCOC(=O)CC(C(=O)OCCCC)S(=O)(=O)[O-].[Na+] (stereo not drawn) [C4H9OOCCH2CH(SO3^−Na^+)COO C4H9] | 0.0664* wt./wt.
2 | CCCCCCOC(=O)CS(=O)(=O)[O-].[Na+] [C6H13OOCCH2SO3^−Na^+] | 0.0412* wt./wt.
3 | CCCCCCOC(=O)CC(C(=O)OCCCCCC)S(=O)(=O)[O-].[Na+] (stereo not drawn) [C6H13OOCH2CH(SO3^−Na^+)COO C6H13] | 0.0053* wt./wt.
4 | CCCCCCCCOC(=O)CCS(=O)(=O)[O-].[Na+] [C8H17OOC(CH2)2SO3^−Na^+] | 0.0132* wt./wt.
5 | CCCCCCCCOC(=O)CS(=O)(=O)[O-].[Na+] [C8H17OOCCH2SO3^−Na^+] | 0.0181* wt./wt.
6 | CCCCCCCCS(=O)(=O)[O-].[Na+] [C8H17SO3^−Na^+] | 0.0346* wt./wt.
7 | CCCCCCCCOS(=O)(=O)[O-].[Na+] [C8H17SO4^−Na^+] | 0.0325* wt./wt.
8 | CCCCCCCCCCS(=O)(=O)[O-].[Na+] [C10H21SO3^−Na^+] | 0.0105* wt./wt.
9 | CCCCCCCCCCOS(=O)(=O)[O-].[Na+] [C10H21SO4^−Na^+] | 0.00858* wt./wt.
10 | CCCCCCCCCCCOS(=O)(=O)[O-].[Na+] [C11H23SO4^−Na^+] | 0.00438* wt./wt.
11 | CCCCCCCCCCCCS(=O)(=O)[O-].[Na+] [C12H25SO3^−Na^+] | 0.0034* wt./wt.
12 | CCCCCCOCCOCCOCCOCCOCCOCCO [n-C6H13(OC2H4)6OH] | 0.0271* wt./wt.
13 | CCCCCCCCO[C@@H]1O[C@H](CO)[C@@H](O)[C@H](O)[C@H]1O [n-octyl-β-D-glucoside] | 0.0111* wt./wt.

Test: GC headspace vs dilution of components of a perfume mixture in 5 wt. % sodium laurate formulation
Assay type: physicochemical
Settings: twelve-component perfume mixture, 5 wt. % sodium laurate (FIG. 9)
Protocol: A typical fully formulated perfume used in a commercial product, e.g., personal wash formulation, usually is a multi-component composition in which the properties of each perfume component can vary dramatically. A typical perfume mixture in a 5 wt. % sodium laurate formulation was tested for its “perfume burst” behaviour upon dilution. […] Each component has a unique dilution curve (GC headspace vs. dilution factor) governed by the factors (hydrophobicity, volatility, etc) discussed previously.

Row | SMILES | perfume headspace increase upon dilution
14 | C=C(C)[C@H]1CC=C(C)CC1 [Limonene] | 1-2 times
15 | Cc1ccc(C(C)C)cc1 [p-Cymene] | 1-2 times
